Data as given in the supplement of paper PMC10126150.
Sequences with one replicate were seen in a single cluster, so their values are uncertain.

Test system: ATP
Assay: switch fluorescence ratio, 500 uM ATP over buffer (Cy3 cluster intensity, sum of 5 cycles each) (fold (ratio)); higher = stronger signal-on switching upon ATP binding; sequences stand for … in TCGTCGGCAGCGTCAGATGTGTATAAGAGACAGTTTTTTTTTTTTTTTTTTTTTTTTT…TC
Details: aptamer strand: ATP DNA aptamer (quencher-CACCTGGGGGAGTATTGCGGAGGAAGG + anchor), 100 nM annealed; ATP concentration: 500 uM; one replicate
In short: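 Five buffer/ATP imaging cycles were run on Cy3-labelled switching-strand clusters on a modified Illumina MiSeq flow-cell, with NaOH stripping and re-annealing between cycles. In each cycle, clusters annealed to 100 nM quencher-labelled ATP aptamer were imaged in selection buffer, then after 15 min with 500 uM ATP at 22 °C. Per cluster, the fluorescence ratio is summed target-cycle over summed buffer-cycle Cy3 intensity, averaged per switch-domain sequence. Only clusters within 100-1000 RFU were kept.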
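Further: ATP exposure 15 min at 22 °C before imaging.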

Sequence	switch fluorescence ratio
TGTTGCCGG	1
AATGCGAACG	1.01
CGGGACGTAA	0.998
AGGATGAGAG	0.993
GGATCCAGGT	1.05
GCTGAACGCG	1.02
TAGCGCCTCT	0.983
TGGATACCTT	1.01
CCAGACGAGC	1.1
ACTTATCCGT	1.05
CGGCAGATGA	0.986
TTAGACAGTT	0.959
AACACAGGTC	1.02
AGGTAGTGGT	0.996
TAGGCTCACT	0.991
TCTTATTATT	0.982
CATTGACTC	1.07
AAAATGCCCG	1.03
ACCTTGGGCT	0.99
TACGTTTTAT	1.04
AAAAAAGG	1.03
GAATGAGTAG	1.01
TAGGGGAT	0.975
GCTGTGATCC	1.02
GGAGCCTGCT	0.99
CTAACGAGTG	0.962

Sequence	switch fluorescence ratio
CTGTATACCG	1.04
CGATTGGACC	1.09
CTCTCGGTCA	1.05
CAAGGTGTCT	0.991
CCATCATACT	1.65
ATCGACGCCT	1.05
GCATGAGGCT	1.01
CTTATCGCGC	0.963
GGTACTGAAG	1.02
TCCTCGGCCA	1.09
CGAAACAGGT	0.957
TGTGGCCTCC	1.02
TGTAATAACC	1
TTGAGTCATT	0.971
ACTAAGTAAG	1.01
CTTTAAAGAT	1.07
CTAAGTATCG	1.02
AGGTGAGTCT	1.08
TCTTGGTACT	0.968
TTTGGGGCA	1.02
ATCGCGAACT	1.03
TCAGAGGGGA	1.08
GCTTTCAGTA	0.97
CCGTCGTCCC	1.2
GTCGTCGGTT	1.03
CCGACGATG	1.93

Sequence	switch fluorescence ratio
GCTGCAGAAC	2.13
GGGAGTCCAC	1.04
GAAGCCGGAT	0.941
GCAACCTTAC	2.99
GCCCGAAAGT	1.03
TTGGACATGA	1.01
TGCTGGTGCA	1.02
GTAACTTTAT	1.02
GTCACACGGA	1
GATGGATCCT	0.951
GGCACAATCT	0.986
CGAGCAAAAA	3.27
TAGACAACAT	1.03
CGTAAGAAGC	1.03
CGTCGCAACT	2.29
TTTGGAGAAG	1.05
AAGTACACGT	1.09
AGTGGAAAAC	1.25
TTACTTAACG	1.34
AGAAGCCGGT	0.935
CTGAGGAACG	0.988
CGTCAAAGCC	1.05
CGATGCGTAT	1.01
AGACGGTAAA	1.15
TGGTAAAGTT	0.967
CGTTGGGCAC	1.06

Sequence	switch fluorescence ratio
AGCGTCTTGG	0.975
AGCCCCTAGA	0.984
CACCTGTGCA	1.02
GATATTTACT	1.04
TAGTGGTCCC	0.981
CTCGGACTGC	1.12
CAAGGTGAAT	1.01
GGGCCTAT	1.02
AACGTGCCT	1.03
TTTGGACACG	0.986
GCAGTTGCAT	1
GAATGTCTGG	1
GTATTGAGGC	0.915
AGCGGCTGCG	1.04
TACACCGTTC	1.09
GATTCGTGTC	1.05
TATCTGCTTC	1.08
TAATCTGTCG	0.893
AATGGGTCT	1.04
CTTAGTTCAG	1.03
TGGAATCGTG	1.02
CCCAAGGGCC	1
GTGTACGAGC	1.1
CTAGTGGGCC	1
CCGTGGTCGT	1.05
ACAGATAGGT	1.06

Sequence	switch fluorescence ratio
GCAAGTCCGC	1.42
GCTCCGCTCG	3.5
GCTAGCCGA	0.98
CACGGGATTC	1.04
CACGGAAAA	0.998
GCATGGGAGG	0.968
GACTAGGAGA	0.963
CGAGTAAACC	1.02
GATTGAAGGT	0.972
CGAAACCTGG	1.25
TTGGCAGAAA	0.971
CGGGACTTTG	1.01
GATGATTTAC	1.07
GCCTGCAGAA	1.01
TTAGTGGTTA	0.991
ATATGTGAAA	0.978
TCACACCCCG	1.11
AGAGTGCAGA	0.996
TAGCGGGGAT	0.999
GTGAATGTCT	0.994
AAGTCGGACT	1.01
ACACGCGGTC	1.19
GGAACCATGG	1.02
CTTGTCAGCT	0.977
TACGAGGGCA	1.08
TCTAGTGCGT	0.982

Sequence	switch fluorescence ratio
CGGGAAGTGA	0.974
GACAGACTCT	1.05
CCCAAAACAA	1.47
CTTAGTAACT	1
CCGTTCTCG	1.03
CCAGCACGCG	1.05
AGGAAGTGCA	1.01
TGGAGTCGGA	1.03
GTGCTAAGAT	1.03
AAGACTTTCT	1.02
TTATATTAA	0.987
AATATAACTT	1.04
CGTTGTACCT	1.13
CCTAGTATGA	1.02
CAGTCTCCTG	1.03
ACTCGGGGCG	1.03
TAGGCTGGAA	0.997
CGTCAAGCAG	1.16
CGGTCGATGT	0.995
AGAGCTAGGT	0.99
AACTGGTAAG	1.04
CTCAACAGAC	1.88
CTAGCTCTGC	1.06
